Screen size: about 39,000 compounds; about 220 (0.56%) showed activity. The list shows a part of the results.
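Note: static incubation at 37 °C against the wild-type strain, values averaged over two biological replicates.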

The test system of this assay is Escherichia coli K-12 BW25113. The assay can be described thus: relative growth (OD600 normalised to plate interquartile mean) (fraction); higher = less growth inhibition, active = 0.2 or less. The settings on record: 50 µM; LB; incubation time: overnight (16-24 h).
With `O=C(C[C@H]1C[C@@H]2c3cc(NS(=O)(=O)c4ccccc4)ccc3O[C@@H]2[C@@H](CO)O1)NCC(F)(F)F`, the relative growth is inactive: 0.985.
The value for `COc1cccc(OCc2ccc(Cn3nc(NC(=O)NCc4ccc(F)cc4)c4ccccc43)cc2)c1` was inactive: 1.01.
As for `CN(C)CCCNC(=O)[C@@H]1c2ccccc2C(=O)N(Cc2cc(C(F)(F)F)cc(C(F)(F)F)c2)[C@H]1c1ccc(CO)cc1`, the relative growth was inactive: 0.978.
For `CC(C)NC(=O)Nc1ccc2c(c1)C(=O)N([C@@H](C)CO)C[C@H](C)[C@@H](CN(C)Cc1ccc(Cl)c(Cl)c1)OCCCC[C@@H](C)O2`, the relative growth was inactive: 0.971.
As for `Cc1ccc(S(=O)(=O)Nc2ccc3c(c2)C(=O)N([C@@H](C)CO)C[C@@H](C)[C@@H](CN(C)C(=O)CCC(F)(F)F)OCCCC[C@@H](C)O3)cc1`, the relative growth was inactive: 0.983.
Regarding `C[C@H](O)C#Cc1ccc2c(c1)O[C@@H](CN(C)C(=O)C1CCCCC1)[C@H](C)CN([C@H](C)CO)S2(=O)=O`, the relative growth was inactive: 0.877.
The value for `COc1ccc(NC(=O)N[C@@H]2CC[C@H](CCNC(=O)CN3CCOCC3)O[C@@H]2CO)cc1` was inactive: 0.991.
Next, `CC(C)[Si](C#C[Si](C(C)C)(C(C)C)C(C)C)(O[C@H](C)c1cn([C@H](C)c2ccccc2)nn1)C(C)C`: inactive: 0.959; `C[C@H](CO)N1C[C@H](C)[C@@H](CN(C)C(=O)Nc2ccc3c(c2)OCCO3)OCc2cn(nn2)CCCC1=O`: inactive: 0.986; `CC(C)Cn1cnc2c(N)nc3ccccc3c21.Cl`: inactive: 1.09.
Next, `CC(C)(C)OC(=O)CC[C@]1(C(=O)NCCN2CCOCC2)COC(c2ccc(OCCCO)cc2)=N1`: inactive: 0.88; `C[C@@H]1CCCCO[C@H](CN(C)Cc2ccc(Cl)c(Cl)c2)[C@H](C)CN([C@@H](C)CO)C(=O)c2cc(NC(=O)NC3CCCCC3)ccc2O1`: inactive: 1.02.
As to `Cc1cc(C(=O)N2CC[C@@]2(C)C(=O)NS(=O)(=O)c2ccc(C#N)cc2)nn1C`, the relative growth was inactive: 1.02.
As to `COc1ccc(CN(C)C[C@H]2OCCCC[C@@H](C)Oc3ccc(NC(=O)CCC(F)(F)F)cc3C(=O)N([C@@H](C)CO)C[C@@H]2C)cc1`, the relative growth was inactive: 0.995.
`C=CCN1C(=O)[C@]2(O[C@H](CCO)[C@@H]([Si](C)(C)c3ccc(OC)cc3)[C@@H]2C)c2cc(NC(=O)[C@H](C)O)ccc21`: the relative growth is inactive: 0.992.
The value for `CNC(=O)CN(C#N)c1nc(N(C)C)nc(N(C)C)n1` was inactive: 0.941; that for `CC1CCC(C(C)C)C(O)C1` (centres undefined) was inactive: 0.933.
For the molecule `C[C@H](CO)N1C[C@H](C)[C@H](CN(C)S(=O)(=O)c2ccccc2)Oc2c(NC(=O)c3ccncc3)cccc2C1=O`, the relative growth was inactive: 1.
Regarding `C[C@@H]1CCCCO[C@H](CN(C)C(=O)CCC(F)(F)F)[C@@H](C)CN([C@H](C)CO)C(=O)c2cc(NS(=O)(=O)c3cccs3)ccc2O1`, the relative growth is inactive: 1.01.
Next, `Cn1c(=O)c(F)c(Nc2ccc(I)cc2F)c2c(=O)n(C[C@@H](O)CO)cnc21`: inactive: 1.02; `C[C@@H]1CN([C@H](C)CO)C(=O)c2cc(NS(=O)(=O)c3cccs3)ccc2O[C@@H](C)CCCCO[C@H]1CN(C)C(=O)NC1CCCCC1`: inactive: 1; `CO[C@H]1CN(C)C(=O)c2cc(NC(=O)C3CC3)ccc2OC[C@@H](C)N(C(=O)CN2CCOCC2)C[C@H]1C`: inactive: 0.991.
The value for `C[C@@H]1CCCCO[C@H](CN(C)Cc2ccc(C(F)(F)F)cc2)[C@@H](C)CN([C@H](C)CO)C(=O)c2cc(NC(=O)CCCCCC(=O)Nc3ccccc3N)ccc2O1` was inactive: 1.03; that for `Cc1noc(C)c1NC(=O)Nc1ccc2c(c1)C(=O)N([C@H](C)CO)C[C@H](C)[C@@H](CN(C)C(=O)Nc1ccc(F)cc1)OCCCC[C@@H](C)O2` was inactive: 0.985; that for `C[C@@H]1CN([C@@H](C)CO)S(=O)(=O)c2ccc(C#CCN(C)C)cc2O[C@@H]1CN(C)Cc1cccnc1` was inactive: 0.993.
The value for `C[C@@H]1CN([C@@H](C)CO)C(=O)CCCn2cc(nn2)CO[C@@H]1CN(C)C(=O)Nc1ccc(N2CCN(C)CC2)cc1` was inactive: 0.988; that for `COC(=O)C[C@H]1CC[C@H]2[C@@H](COC[C@@H](O)CN2S(=O)(=O)c2ccccc2C)O1` was inactive: 1.02; that for `O=[N+]([O-])c1ccc(/C=C/CN(C/C=C/c2ccc([N+](=O)[O-])cc2)CCNS(=O)(=O)c2cccc3cnccc23)cc1` was inactive: 1.03.
Take `C[C@@H]1CCCCO[C@H](CN(C)C(=O)Nc2ccccc2)[C@H](C)CN([C@H](C)CO)C(=O)c2cc(NC(=O)Cc3ccccc3)ccc2O1`: the relative growth is inactive: 1.
Next, `CN(C)Cc1cn(CC[C@@H]2CC[C@H](NC(=O)Cc3cccnc3)[C@H](CO)O2)nn1`: inactive: 1.01; `C[C@H](CO)N1C[C@H](C)[C@@H](CN(C)S(C)(=O)=O)Oc2ccc(NC(=O)c3ccncc3)cc2CC1=O`: inactive: 1.
For the molecule `C/C=C/c1ccc2c(c1)O[C@@H](CN(C)S(=O)(=O)c1ccccc1)[C@@H](C)CN([C@@H](C)CO)S2(=O)=O`, the relative growth was inactive: 0.922.
Next, `O=C(CCCN1CCC(O)(c2ccc(Br)cc2)CC1)c1ccc(F)cc1`: inactive: 0.928; `CC(C)N1C[C@H](C)[C@@H](CN(C)Cc2ccc(Oc3ccccc3)cc2)Oc2c(NC(=O)c3cccnc3)cccc2C1=O`: inactive: 1.07.
Next, `COc1ccc(S(=O)(=O)N(C)C[C@H]2Oc3ccc(NC(=O)Cc4ccccc4)cc3C(=O)N([C@@H](C)CO)C[C@@H]2C)cc1`: inactive: 1.02; `C[C@@H]1CCCCO[C@@H](CN(C)C(=O)Cc2ccccc2)[C@H](C)CN([C@@H](C)CO)C(=O)c2cc(NS(=O)(=O)c3ccc(Cl)cc3)ccc2O1`: inactive: 1.02; `NCC[C@H]1CC[C@@H](NC(=O)Nc2ccc(F)cc2)[C@H](CO)O1`: inactive: 1.01.
The value for `C[C@@H]1CN([C@H](C)CO)C(=O)c2cc(NC(=O)Nc3ccc(F)cc3)ccc2O[C@H]1CN(C)C(=O)Nc1cccc2ccccc12` was inactive: 1.02.
On to `C[C@@H]1CCCCO[C@H](CN(C)CC2CCCCC2)[C@@H](C)CN([C@H](C)CO)C(=O)c2cc(NC(=O)C3CCCCC3)ccc2O1`, for which the relative growth was inactive: 1.01.

For the origin of these results see the supplement of paper PMC9446081.
